About 14,000 (4.5%) of roughly 310,000 compounds showed an effect of 50% or more. Effects have a minus sign here. Some of the results follow.
target: human ether-à-go-go-related gene (hERG) potassium channel (human, UniProt Q12809); assay: primary screen, population patch clamp on CHO cells stably expressing hERG
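Further: peak tail current of the secondary pulse compared with the same well before compound.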

Chain of human ether-à-go-go-related gene (hERG) potassium channel (Q12809 whole entry, looked up): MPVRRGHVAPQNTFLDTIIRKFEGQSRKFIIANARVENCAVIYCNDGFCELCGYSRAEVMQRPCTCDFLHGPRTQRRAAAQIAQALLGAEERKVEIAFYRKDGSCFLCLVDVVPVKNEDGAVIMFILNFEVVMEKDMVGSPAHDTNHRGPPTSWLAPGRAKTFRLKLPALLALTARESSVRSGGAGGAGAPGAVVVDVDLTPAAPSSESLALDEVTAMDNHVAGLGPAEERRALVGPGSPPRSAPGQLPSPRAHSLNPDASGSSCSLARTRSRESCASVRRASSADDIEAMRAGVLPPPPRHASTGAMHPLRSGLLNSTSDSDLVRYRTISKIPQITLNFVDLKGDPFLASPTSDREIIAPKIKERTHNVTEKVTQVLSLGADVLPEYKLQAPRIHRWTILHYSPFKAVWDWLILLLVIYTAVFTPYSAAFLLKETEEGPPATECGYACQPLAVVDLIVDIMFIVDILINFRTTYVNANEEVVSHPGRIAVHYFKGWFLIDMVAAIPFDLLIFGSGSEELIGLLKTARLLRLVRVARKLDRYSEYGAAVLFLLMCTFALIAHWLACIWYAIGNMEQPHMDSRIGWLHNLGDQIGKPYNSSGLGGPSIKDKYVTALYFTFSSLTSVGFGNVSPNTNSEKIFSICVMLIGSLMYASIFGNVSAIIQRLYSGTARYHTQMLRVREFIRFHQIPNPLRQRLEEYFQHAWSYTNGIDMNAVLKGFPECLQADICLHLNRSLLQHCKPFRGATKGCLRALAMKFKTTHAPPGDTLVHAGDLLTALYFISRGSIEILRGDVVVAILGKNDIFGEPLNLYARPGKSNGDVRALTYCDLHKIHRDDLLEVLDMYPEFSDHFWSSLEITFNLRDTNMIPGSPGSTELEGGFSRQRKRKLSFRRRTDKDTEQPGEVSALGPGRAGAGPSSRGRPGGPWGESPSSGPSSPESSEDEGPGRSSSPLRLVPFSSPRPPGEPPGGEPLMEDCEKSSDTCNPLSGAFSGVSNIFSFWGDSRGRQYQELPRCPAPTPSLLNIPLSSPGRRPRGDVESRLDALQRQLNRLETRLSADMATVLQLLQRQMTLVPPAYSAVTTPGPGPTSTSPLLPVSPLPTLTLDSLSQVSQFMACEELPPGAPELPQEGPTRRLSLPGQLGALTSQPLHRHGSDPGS

Compound | hERG current change (%, negative = inhibition) at 10uM
CN1C(=O)/C(=C\N2CCc3ccccc32)C(=O)NC1=S | 4.71%
CCc1ccc(S(=O)(=O)NCc2cn3ccsc3n2)s1 | 6.83%
Cc1cc(=O)n2nc(N3CCC(C(=O)NCc4ccccc4Cl)CC3)sc2n1 | -30.1%
COc1ccccc1N1CCN(C(CNC(=O)c2ccc3c(c2)OCO3)c2cccnc2)CC1 (stereo not drawn) | -14.6%
O=C(NCc1nnc(SCC(=O)N2CCN(c3ccccc3)CC2)o1)c1c(F)cccc1Cl | -32.4%
CCn1c(=O)[nH]c2cc(Cl)c(Cl)cc21 | -37.3%
CCCOc1ccccc1N1C(=O)CC(N2CCOCC2)C1=O (stereo not drawn) | 2.59%
CCCOc1ccc(C2NC(=S)NC(C)=C2C(=O)c2ccccc2)cc1OC (stereo not drawn) | 7.13%
O=[N+]([O-])c1ccc(N2CCN(CCOCCO)CC2)c([N+](=O)[O-])c1 | -45.6%
CC1CN(C(=O)Nc2ccc3snnc3c2)c2ccccc21 (stereo not drawn) | -18%
CC1=CCC2C(=O)N(c3cc(C)on3)C(=O)C2C1 (stereo not drawn) | -6.97%
COc1cc2c(cc1OC)/C(=C/C(=O)c1ccccc1)NCC2 | -16.4%
Cn1nc(-c2ccc(C(=O)Nc3cccc(Cl)c3)cc2)c2ccccc2c1=O | -1.1%
CCOCCCN1CN(Cc2ccco2)CNC1=S | 7.86%
O=C(NCc1ccccn1)c1ccc(Cn2cc(Br)cn2)o1 | 2.17%
CC(=O)Nc1ccc(NC(=O)Nc2cccc3ccccc23)cc1 | 18.2%
Clc1ccccc1OCCCCN1CCCC1 | -29.6%
O=C(C1=C(O)C(=O)N(CC2CCCO2)C1c1cccc(Cl)c1)c1ccco1 (stereo not drawn) | -12%
COc1ccc(C)c2sc(N(CCN(C)C)C(=O)c3cccc(N4C(=O)CCC4=O)c3)nc12.Cl | -57.9%
O=C(NCCNC(=O)c1cc(Cl)ccc1Cl)c1cnccn1 | -7.72%
O=C(Nc1cccc(Cl)c1N1CCOCC1)c1ccc(Br)o1 | 6.64%
COc1ccc(S(=O)(=O)N(C)CC(=O)NCCC2=CCCCC2)cc1C | -26%
CC(C)COc1ccc(-c2nn(-c3ccccc3)cc2CO)cc1 | 10.6%

Compound | hERG current change (%, negative = inhibition) at 10uM
CCCOc1ccc(C(=O)C(c2ccccc2)N2CCOCC2)cc1.Cl (stereo not drawn) | -8.62%
O=S1(=O)CCC(S(=O)(=O)N2CCCCCC2)C1 (stereo not drawn) | 12.5%
O=C(OCC(=O)N1CCOCC1)c1cccc(S(=O)(=O)N2CCCc3ccccc32)c1 | -24.9%
CCOC(=O)CN(C(=O)c1ccccc1)c1ccccc1C | 0.425%
CCn1c(O)c(/C=C2\C=NN=C2c2ccc(C)cc2)sc1=S | 5.76%
CNC(=S)Nc1ccc2nc(C)c(C)nc2c1 | 6.61%
COc1cccc(-c2nc(Oc3cc(C)cc(C)c3)c3ccccc3n2)c1O | 12.1%
NC(=O)c1ccsc1NC(=O)COC(=O)C1=NNC(=O)CC1 | 8.28%
Cc1ccc(SCC(=O)NCc2ccncc2)cc1 | -6.77%
COc1ccc(NC(=O)c2ccc(COCC(F)(F)C(F)F)cc2)cc1 | 4.32%
COc1ccc(Nc2nc(N3CCCCC3)c3ccccc3n2)cc1 | -32.9%
O=C(OCc1ccc(Cl)c(Cl)c1)c1ccc[nH]1 | -19%
CC1(C)SC2C(NC(=O)COc3ccccc3)C(=O)N2C1C(=O)[O-].[K+] (stereo not drawn) | -4.23%
CC(Oc1ccc(Cl)cc1Cl)C(=O)Nn1cnnc1 (stereo not drawn) | 21.4%
Cc1noc(N)c1C1(O)C(=O)Nc2c(Cl)cc(Cl)cc21 (stereo not drawn) | 0.32%
COc1ccc(OCc2nnc(NC(=O)Nc3ccc(F)cc3)s2)cc1 | -5.55%
Cc1ccc(C)c(N2CCN(C(=O)C3CCCN(S(=O)(=O)c4c(C)noc4C)C3)CC2)c1 (stereo not drawn) | -11.1%
COc1ccc(CCNC(=O)c2nnn(-c3ccc4c(c3)OCCO4)c2N)cc1OC | -2.71%
Cc1ccc(NC2=C(Cl)C(=O)OC2OC(=O)c2ccco2)cc1 (stereo not drawn) | -42.2%
O=C1/C(=C/c2ccco2)SC(=S)N1CC1CCCO1 (stereo not drawn) | 2.63%
Cn1ncc([N+](=O)[O-])c1C(=O)N1CCOCC1 | -11.8%
COc1c(C(=O)Nc2nnc(C3CC3)s2)csc1Cl | 6.86%
COc1cccc(C2=NN(C(=O)c3ccco3)C(O)(C(F)(F)F)C2)c1 (stereo not drawn) | -1.17%

Compound | hERG current change (%, negative = inhibition) at 10uM
CCCCC(CC)C(=O)Nc1cc(C(=O)NCCC)ccc1N1CCC2(CC1)CC(c1ccccc1)=NO2 (stereo not drawn) | -64.6%
O=C(O)c1ccc2c(c1)C1C=CCC1C(c1ccncc1)N2 (stereo not drawn) | -0.0764%
COc1cc(/C=N/Nc2ccc(C(=O)O)cc2)cc(OC)c1OC | 10.5%
COc1ccccc1C1C(C(=O)c2cc3ccccc3o2)=C(O)C(=O)N1CCN1CCOCC1 (stereo not drawn) | 22.9%
O=C(CCC(=O)n1ncc2ccccc21)N1CCCCC1 | 5.74%
CCCCN(CC(=O)NC1CC1)S(=O)(=O)c1ccc(OCC)cc1 | -22.1%
O=[N+]([O-])c1ccc(Sc2ccccc2Cl)nc1 | 1.63%
CCOc1ccc(NC(=O)c2ccccc2OCC(=O)c2ccc(C)cc2)cc1 | 7.69%
CN(CC(=O)NCc1ccccn1)S(=O)(=O)c1cc(Cl)ccc1Cl | -6.98%
Cc1ccccc1C(=O)Nc1cccc(C#N)c1 | -5%
COc1ccc(S(=O)(=O)Nc2ccccc2Cl)cc1NC(C)=O | 8.78%
CCOC(=O)COc1ccc(S(=O)(=O)N2CCN(c3ccccc3F)CC2)cc1 | -7.1%
CCC(C)(C(=O)NC1CCCC1)N(Cc1cccs1)C(=O)c1ccc2c(c1)OCO2 (stereo not drawn) | -13.7%
O=C1CC(N2CCN(c3ccccc3Cl)CC2)C(=O)N1c1ccccc1 (stereo not drawn) | 3.14%
COCCCNC(=S)NCCCNc1nc2cc3c(cc2cc1C#N)OCO3 | -4%
CCc1nn2c(=O)cc(COc3cccc(NC(=O)c4ccco4)c3)nc2s1 | 6.17%
Cc1ccc(CNS(=O)(=O)CCNC(=O)c2ccc3c(c2)OCO3)cc1 | -17%
COc1cc(/C=N/NC(=O)CCNC(=O)c2ccccc2Cl)ccc1O | 16.3%
COc1ccc(C(=O)Nc2nc(C)c(C(=O)N(C)C)s2)cc1OC | 15.9%
CC(C)(C)c1ccc(C(=O)NC(=S)N2CCOCC2)cc1 | 13.1%
COc1ccc(CN(CCCN2CCOCC2)C(=O)Nc2ccccc2)cc1OC | -10.9%
CCN1CCN(C(=O)C2(NC(=O)Nc3ccccc3Cl)CCCCC2)CC1 | -12.4%
Cc1cc(C)c2c(n1)nn1c(C3CC3)cc(C(F)(F)F)nc21 | 9.78%

Compound | hERG current change (%, negative = inhibition) at 10uM
CCOC(=O)c1oc2ccccc2c1N | 5.11%
O=Cc1ccc(Sc2nnc(-c3ccccc3)o2)c([N+](=O)[O-])c1 | 10%
CCOc1ccc(C(=O)N(CC(=O)Nc2cccc(C)c2C)CC2CCCO2)cc1OC (stereo not drawn) | -2.11%
Cc1cc([N+](=O)[O-])nn1CC(=O)N/N=C/c1ccccc1O | 2.6%
CCC1(C)Cc2nc3[nH]c(=S)n(-c4ccccc4)c(=O)c3cc2CO1 (stereo not drawn) | 17.6%
O=C(c1cccs1)n1nc(-c2ccccc2)nc1NCc1ccc(F)cc1 | -33.6%
Cc1nc2ncnn2c(C)c1CCC(=O)NC(C)CCc1ccco1 (stereo not drawn) | -8.57%
COc1ccc(-c2csc(N(CCCN(C)C)C(=O)c3cccs3)n2)cc1.Cl | -73.9%
COc1ccc(C(=O)N2CCN(C(=O)c3ccco3)CC2)cc1 | -5.7%
COc1cccc(C(=O)Nc2cc(C)ccc2NC(=O)COc2ccccc2)c1 | 13.4%
O=C(O)CSc1cccc2cccnc12 | 16.3%
CCC(C)Nc1nc2c(c(=O)n(C)c(=O)n2C)n1Cc1ccc(F)cc1 (stereo not drawn) | -7.7%
CCn1c(SCc2nnc(-c3ccccc3)o2)nnc1-c1ccc(S(=O)(=O)N2CCCC2)cc1 | -34.6%
O/N=C/c1ccc2ccccc2c1 | 3.05%
N#CCCn1nc(-c2ccccc2)cc1Nc1ccccc1NC(=O)C(F)(F)F | -16.8%
O=C(Nc1ccccc1N1CCOCC1)c1ccc(Cl)c(S(=O)(=O)NCc2ccco2)c1 | -51.8%
CCc1cc2c(=O)n(N)c(CCC(=O)O)nc2s1 | -8.56%
CCOCCOC(=O)COc1ccc2c(=O)c(Oc3ccc(OC)cc3)coc2c1 | 15.3%
Fc1ccc(C[n+]2c(-c3ccccc3)cc(-c3ccccc3)cc2-c2ccccc2)cc1.[O-][Cl+3]([O-])([O-])[O-] | -71.5%
CCCCCSc1nnc(-c2cc(Br)ccc2N)c(=O)[nH]1 | 4.09%
Cc1ccc([N+](=O)[O-])cc1NC(=O)Cc1cccs1 | 18.6%
